From the supplement of paper PMC12217912
The list shows a part of the results. Sequences were assembled here from the parent chain. Values near 0.05 are background.

B1: TEV protease; numbered along this chain (parent)
chain: MGESLFKGPRDYNPISSSICHLTNESDGHTTSLYGIGFGPFIITNKHLFRRNNGTLVVQSLHGVFKVKDTTTLQQHLVDGRDMIIIRMPKDFPPFPQKLKFREPQREERICLVTTNFQTKSMSSMVSDTSCTFPSGDGIFWKHWIQTKDGQCGSPLVSTRDGFIVGIHSASNFTNTNNYFTSVPKNFMELLTNQEAQQWVSGWRLNADSVLWGGHKVFMVKPEEPFQPVKEATQL

Variants of: B1
Test: raw area under fraction-flipped curve 0-4 h after induction (AUC4h, not background-subtracted), DNA-recorder readout of cleavage of the substrate (dimensionless); higher = more cleavage of the substrate by the protease variant
Details: temperature: 34 °C; time window: 0-4 h after rhamnose induction
Protocol: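 In vivo DNA recorder in E. coli TOP10(DE3) ΔrhaA at 34 °C. Each TEVp single-site mutant (parent TEVp 0) is paired with a single-site variant of the 7-mer TEVs (canonical ENLYFQ|S). The substrate sits between flexible linkers in a Bxb1-sfGFP-TEVs-SsrA fusion, so cleavage stabilises Bxb1 and speeds flipping of a recombination array, read by NGS. The value is the raw area under the fraction-flipped curve over 0-4 h after rhamnose induction (AUC4h), with ≥20 reads per time point. It is not background-subtracted; inactive controls average about 0.047.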
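Note: Bxb1 expression induced with 0.2% (w/v) L-rhamnose at OD600 near 0.5, cultures sampled hourly, flipped fraction per protease–substrate barcode pair counted by paired-end Illumina sequencing.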

Variant	area with substrate CNLYFQS	area with substrate DNLYFQS	area with substrate FNLYFQS	area with substrate GNLYFQS	area with substrate HNLYFQS	area with substrate INLYFQS	area with substrate KNLYFQS	area with substrate LNLYFQS	area with substrate MNLYFQS	area with substrate NNLYFQS	area with substrate QNLYFQS	area with substrate RNLYFQS	area with substrate SNLYFQS	area with substrate TNLYFQS	area with substrate VNLYFQS	area with substrate WNLYFQS	area with substrate YNLYFQS	area with substrate PNLYFQS
Q198F	0.0623	0.0613	0.0569	0.0679	0.0632	0.072	0.0579	0.0577	0.0701	0.0556	0.0683	0.0572	0.0406	0.0671	0.0632	0.0606	0.0525	
P184E	0.0635		0.0384	0.0429	0.054			0.0702	0.0562	0.0565			0.0612	0.0862		0.0526		0.0579
V64A	0.0312				0.0664	0.0739	0.07	0.0469						0.0717		0.0604	0.0643	
G80E	0.0675	0.0911	0.0728	0.0797	0.0606	0.0712		0.0846	0.0832	0.0569	0.0968		0.0687	0.0886		0.0637		0.0777
K120C	0.0738		0.0669	0.0713	0.071	0.0656		0.0632		0.0536				0.0755		0.0625	0.0439	0.0815
W141S	0.0541	0.0334	0.0526	0.0722	0.0521	0.0448	0.0668		0.0453	0.0663			0.0562	0.0499	0.0611	0.0558	0.0527	0.0104
V64D	0.0571	0.0703	0.0682	0.0672				0.0504	0.0444							0.0534		0.0868
N45Y	0.0576	0.0312	0.0619	0.0611	0.0577	0.0133	0.0645		0.0548	0.0629	0.0582		0.0657	0.0496		0.0583	0.0594	0.0585
G80Q	0.0721	0.0773	0.0611	0.0697	0.0722	0.0663	0.057	0.0578	0.064		0.0673	0.0658	0.0711	0.0623	0.0717	0.062	0.0615	
D69P	0.0684	0.0627	0.055	0.0802	0.0609	0.0646	0.0797	0.0588	0.0689	0.066			0.0623	0.0665		0.0594	0.0589	0.0609
D149G	0.0501	0.0547		0.057	0.062		0.0581	0.0593		0.0377			0.0435	0.0677	0.0685	0.059	0.053	0.0671
M125D	0.0836	0.0787	0.0574		0.072	0.0634	0.0671	0.064	0.06	0.0684	0.0486	0.0883	0.0735		0.0706	0.0614	0.0392	0.0592
N24A	0.0631		0.0499		0.0683			0.0677	0.0625	0.0652			0.0565	0.0634		0.0657	0.0922	0.0678
G80I	0.0734				0.0649	0.0652	0.0643	0.0587	0.0527	0.0355			0.054	0.0569	0.0581	0.0648	0.0595	0.0615
W144I	0.0192				0.0662	0.0596		0.0624	0.0646	0.0588		0.0594	0.0656	0.0689	0.0692	0.0507		0.0631
L56F	0.0444	0.0722	0.0511		0.0708	0.0579	0.071	0.0663	0.0632	0.0643			0.0654	0.0602	0.0625	0.0563	0.0582	0.0646
R160E	0.078	0.0815	0.0945	0.0718	0.0783		0.0778	0.0632	0.0628	0.0389	0.0734		0.0777	0.0653	0.0731	0.0621	0.0626	0.0674
I15F	0.065	0.0723	0.0607	0.0746	0.0668	0.0585	0.0604		0.0718		0.0631	0.0497	0.06	0.0566	0.0588	0.0559	0.072	0.0652
R102I	0.0472	0.0512	0.0444	0.0465	0.0427	0.0504	0.0414	0.0469	0.0452	0.0528	0.0572	0.0511	0.0514	0.0449		0.0516	0.0455	
D208L	0.0622					0.054		0.0615			0.0634			0.0673	0.0616	0.0641		
M88F	0.0501								0.0696	0.024				0.0386		0.0709		0.0549
S32C	0.0613	0.0829	0.0895		0.0729	0.0601		0.0468	0.0616	0.0769		0.0712	0.0806	0.0657		0.055		0.0694
W199G	0.0536	0.0547	0.0523	0.0575	0.0671	0.0476	0.0743	0.0464	0.0815	0.0712		0.0667	0.0638	0.062		0.0649	0.0484	0.0622
D11E	0.0643	0.0717	0.0588	0.0754	0.0626	0.0594	0.0704	0.0861	0.0533	0.0682	0.0674	0.0638	0.0509	0.0652		0.0585	0.0628	0.0722
T192S	0.0876		0.0695	0.0629	0.0384	0.0628		0.0723		0.0696			0.0662	0.0712		0.0515	0.0722	0.0761
E224Q	0.064	0.0737	0.0727		0.0659	0.0616	0.0717	0.0683		0.0689			0.0715	0.0453	0.061	0.0608	0.0605	0.0766
